Test results reported in the supplement of paper PMC4604168 (melanoma cell lines).
The other results are listed elsewhere or left out. Single values are uncertain, as repeats are few or missing.

Columns and labels:
Assay in all cases: cell count relative to DMSO control; melanoma cells; higher = more viable cells
Details in all cases: library dose: standard library concentration; 72 h
[1] = system: A101D
[2] = system: A2058
[3] = system: A375
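Also: cells treated in 1,536-well plates, then fixed and DAPI-stained, with nuclei counted from automated high-throughput microscope images.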

| SMILES | cell count [1] [%] | cell count [2] [%] | cell count [3] [%] |
| --- | --- | --- | --- |
| N#CC[C@H](C1CCCC1)n1cc(-c2ncnc3[nH]ccc23)cn1 [ruxolitinib] + Clc1ccc(Nc2nnc(Cc3ccncc3)c3ccccc23)cc1 [vatalanib] (first compound 5 µM, partner dose 10 µM) | 95 | 49.1 | 98.6 |
| CC[C@]1(O)C[C@H]2CN(CCc3c([nH]c4ccccc34)[C@@](C(=O)OC)(c3cc4c(cc3OC)N(C=O)[C@H]3[C@@](O)(C(=O)OC)[C@H](OC(C)=O)[C@]5(CC)C=CCN6CC[C@]43[C@@H]65)C2)C1 [vincristine] + Cn1c(=O)n(-c2ccc(C(C)(C)C#N)cc2)c2c3cc(-c4cnc5ccccc5c4)ccc3ncc21 [NVP-BEZ235] (first compound 0.0005 µM, partner dose 0.02 µM) | 46.5 | 55 | 81.1 |
| N#CC[C@H](C1CCCC1)n1cc(-c2ncnc3[nH]ccc23)cn1 [ruxolitinib] + C[C@@H](N)c1ccc(C(=O)Nc2ccnc3[nH]ccc23)cc1 [RKI983] (first compound 5 µM, partner dose 2 µM) | 78.3 | 54.6 | 119 |
| Cc1cc(Nc2cc(N3CCN(C)CC3)nc(Sc3ccc(NC(=O)C4CC4)cc3)n2)n[nH]1 [Tozasertib] + C=CCn1c(=O)c2cnc(Nc3ccc(N4CCN(C)CC4)cc3)nc2n1-c1cccc(C(C)(C)O)n1 [MK1775] (first compound 0.03 µM, partner dose 0.1 µM) | 56.7 | 85.7 | 84.8 |
| CC[C@]1(O)C[C@H]2CN(CCc3c([nH]c4ccccc34)[C@@](C(=O)OC)(c3cc4c(cc3OC)N(C=O)[C@H]3[C@@](O)(C(=O)OC)[C@H](OC(C)=O)[C@]5(CC)C=CCN6CC[C@]43[C@@H]65)C2)C1 [vincristine] + CCCCCCCCc1ccc(CCC(N)(CO)CO)cc1 [fingolimod] (first compound 0.0005 µM, partner dose 10 µM) | 14.1 | 12.3 | 31.4 |
| N#CC[C@H](C1CCCC1)n1cc(-c2ncnc3[nH]ccc23)cn1 [ruxolitinib] + Nc1ncn([C@H]2C[C@H](O)[C@@H](CO)O2)c(=O)n1 [decitabine] (first compound 5 µM, partner dose 0.5 µM) | 89.8 | 65 | 111 |
| N#CC[C@H](C1CCCC1)n1cc(-c2ncnc3[nH]ccc23)cn1 [ruxolitinib] + CCCCCCCCc1ccc(CCC(N)(CO)CO)cc1 [fingolimod] (first compound 5 µM, partner dose 10 µM) | 17.9 | 8.8 | 51.5 |
| CC[C@]1(O)C[C@H]2CN(CCc3c([nH]c4ccccc34)[C@@](C(=O)OC)(c3cc4c(cc3OC)N(C=O)[C@H]3[C@@](O)(C(=O)OC)[C@H](OC(C)=O)[C@]5(CC)C=CCN6CC[C@]43[C@@H]65)C2)C1 [vincristine] + O=C(CCCCCCC(=O)Nc1ccccc1)NO [vorinostat] (first compound 0.0005 µM, partner dose 0.4 µM) | 56 | 97.6 | 116 |
| Cc1cc(Nc2cc(N3CCN(C)CC3)nc(Sc3ccc(NC(=O)C4CC4)cc3)n2)n[nH]1 [Tozasertib] + CS(=O)(=O)c1ccc(C(=O)Nc2ccc(Cl)c(-c3ccccn3)c2)c(Cl)c1 [vismodegib] (first compound 0.03 µM, partner dose 5 µM) | 87.1 | 76.7 | 82.3 |
| CC[C@]1(O)C[C@H]2CN(CCc3c([nH]c4ccccc34)[C@@](C(=O)OC)(c3cc4c(cc3OC)N(C=O)[C@H]3[C@@](O)(C(=O)OC)[C@H](OC(C)=O)[C@]5(CC)C=CCN6CC[C@]43[C@@H]65)C2)C1 [vincristine] + OCCn1cc(-c2cnc3nnn(Cc4ccc5ncccc5c4)c3n2)cn1 [PF04217903] (first compound 0.0005 µM, partner dose 5 µM) | 97.3 | 90.5 | 106 |
| Cc1cc(Nc2cc(N3CCN(C)CC3)nc(Sc3ccc(NC(=O)C4CC4)cc3)n2)n[nH]1 [Tozasertib] + CN(NC(=O)CC(=O)NN(C)C(=S)c1ccccc1)C(=S)c1ccccc1 [STA4783] (first compound 0.03 µM, partner dose 0.03 µM) | 60 | 10.4 | 106 |
| Cc1cc(Nc2cc(N3CCN(C)CC3)nc(Sc3ccc(NC(=O)C4CC4)cc3)n2)n[nH]1 [Tozasertib] + C[C@@H](N)c1ccc(C(=O)Nc2ccnc3[nH]ccc23)cc1 [RKI983] (first compound 0.03 µM, partner dose 2 µM) | 72.3 | 59.7 | 88.9 |
| N#CC[C@H](C1CCCC1)n1cc(-c2ncnc3[nH]ccc23)cn1 [ruxolitinib] + O=C(CCCCCCC(=O)Nc1ccccc1)NO [vorinostat] (first compound 5 µM, partner dose 0.4 µM) | 104 | 83.3 | 135 |
